# Experimental data published in the supplement of paper PMC11417369.
# The other results are listed elsewhere or left out.
# Test system: PfHDP1 homeodomain (GST-tagged)
# Experiment: gcPBM binding intensity (ln(normalized median fluorescence intensity)); higher = stronger DNA binding
# In short: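 Binding intensity is defined as the maximum Masliner-normalised natural-log median intensity across replicate spots for either probe orientation. It was measured on an Agilent 4 × 180k array of primer-extended double-stranded 36-bp intergenic genomic probes and negative controls, to which GST-tagged P. falciparum DNA-binding domains made in E. coli were applied for 1 h in 1× PBS with 1% milk, 0.2 mg/ml BSA, 0.5% salmon testes DNA and 0.03% Triton X-100. Detection was by Alexa488 anti-GST antibody and scanning at 488 nm.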
row,Sequence,gcPBM binding intensity (ln)
1,AATAATAATATATGTAGTACACATTTCCATTATGTT [XGTACX_site3708],6.6
2,TCATTAATCAGGTATGCATGCATAACTATTAAAAAT [TGCATGCA_site90],6.46
3,GTTATAAATGCATATACACACATACGTACATACATA [CACACA_site7655],7.14
4,TCTTTTTTTTTTATTTGTACTTATTTTTTTCAAAAA [XGTACX_site3403],6.61
5,AAAATAACGAGTCAAACACACATATTTATATTTATA [CACACA_site7050],6.24
6,TAATATAACTACATAACACACGAAAATATATGAATC [CACACA_site3628],6.92
7,AAATAGATAAACTAAACACACAAAAAAAAAAAAAAT [CACACA_site1179],6.35
8,TTATATGAAAAAATATGTACGTATAATGAGAAATAT [XGTACX_site8987],7.15
9,ATACGTATTTTCTTTTGTACATATATATAAAATATT [XGTACX_site2675],6.71
10,TTTATTTATTATTAAAGTACTAAAATATATTATTAT [XGTACX_site4887],6.24
11,AATATTGCACCATTTTGTACATAATATATTCAAATA [XGTACX_site475],10.3
12,TATATTTATTAGTTTCGTACGTACAAAGTTATTTTT [XGTACX_site8847],6.47
13,GTAGGTTTATATTGTAGTACATACAAACGTTAACAA [XGTACX_site5476],6.64
14,ACAAAATTGATATATGCACACATATATATATTAAAT [CACACA_site8152],9.87
15,AATATAATCTTTCAAAAGAAAAAGACTTCATGAAAA [CACACA_negctrl_site1331],6.2
16,ATATACGCATTAATAACACACAATATGATAACAAAT [CACACA_site3623],6.74
17,TATTTTAATATTTGTAGTACAGATTGAAATGACGAA [XGTACX_site4805],6.48
18,TTTTTTTTTGGGGGTGCATGCAAGACATATATTTAA [TGCATGCA_site228],9.38
19,CATACATATATATATACACACATACATATATATACA [CACACA_site8165],6.93
20,ATTCGTGAACTAGCCAAACACACGAAAAAAAAAAAA [CACACA_site3342],6.28
21,ATGTAACATAGGAAATGTACATATAAATATAATTTA [XGTACX_site6452],6.48
22,TTTTATTGATTATTCATAAATATGCTATTCATCTAA [CACACA_negctrl_site1084],5.99

row,Sequence,gcPBM binding intensity (ln)
1,TATTTTGTTCTTTCCACACACAAATACCTATCTTGT [CACACA_site7833],7.11
2,GCTATTTATTTATATTGTACTTTTTTTTTTTTTTTT [XGTACX_site3624],6.53
3,TTTTTTTTTTGATGTTGTACATATATATTATATAAT [XGTACX_site2765],6.59
4,TTAACAAATAGACACACACACACACGCAAAAAAAAA [CACACA_site6387],6.81
5,TTTTTTTTTCATTATTGTACATTGAAACTTCATTTT [XGTACX_site6041],6.6
6,ATATATATATTTACATGTACACATCTATATATAAAC [XGTACX_site5581],7.97
7,AAAAAAAAAAAATGTGCATGCTATATATATATATAT [TGCATGCA_site727],9.5
8,TAAAAACAAAAATGTTGTACATAATATAAAACAATT [XGTACX_site6380],6.07
9,CACACAATGGCTAGCTGTACATAATATATATCTACA [XGTACX_site4691],6.45
10,GAAAATAAAATAAATGCATGTAAATTTAATGTAATG [TGCATGCA_site996],6.88
11,TATATAAATATACAAACACACATACAAACATATATA [CACACA_site4754],6.96
12,AAAAAAAACGAACACACACACAAATATGTAAAAATA [CACACA_site6673],6.84
13,TCTCTAACTTTTAATACACACAAATAAATAAATAAA [CACACA_site6245],6.61
14,GTTTTATTTATTTCATGTACACAAAAAAGGTTTTAA [XGTACX_site6525],6.97
15,TACATACATACATACACACACACATATAAATACATA [CACACA_site4626],7.74
16,AAAATAAAATAATAAAATAAAATAATAATAAAATAA [TGCATGCA_negctrl_site401],6.27
17,AATACATATATATATTGTACATATAGGGAAAAATTA [XGTACX_site2275],6.75
18,GTGGGAAACATAAACACACACAAAAAGAAAAAATAG [CACACA_site4810],6.81
19,GAATATAAACATATTACACACATCTATCTGTACATT [CACACA_site5114],6.5
20,TGGTATCAAAAGAATACACACACACCGACATATATA [CACACA_site9265],6.75
21,AAATTTATATAAAACAGTACAATTAAAAAAAAAATA [XGTACX_site8015],6.52
22,ATTTTTTTATAAAATTTTTTATATATTAAATATTAT [CACACA_negctrl_site135],6.22
